# Measured values from PubChem BioAssay (NCI).
#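 Step 1: Grow cells in 96-well plates. Step 2: Expose to compound for 48 hours at 5 concentrations. Step 3: Interpolate endpoints linearly; if unreached, use highest concentration. GI50 is the concentration that inhibits growth by half.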 For part of its entries the source gives two or more results. Only these are listed. There may be further records. A record mostly stands for its own series of concentrations, which the source does not state; some values may only mark the edge of a range.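 TGI is the concentration that stops growth completely.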
# Key:
# Assay in all cases: growth of human tumour cells (NCI), 48 h
# [1] = tested on: OVCAR-4 ovarian
# [2] = tested on: SR leukemia
# [3] = tested on: SK-MEL-5 melanoma
# [4] = tested on: A498 renal
# [5] = tested on: EKVX NSCLC
# [6] = tested on: RXF 393 renal
# [7] = tested on: NCI-H226 lung
smiles,measurement,setting,value
COc1ccc2c(c1)NC(=O)CN2c1nc(NC2CC2)nc2ccccc12,GI50,[1],2.23 nM and 920 nM
same,TGI,[2],1.29 nM and > 100 µM
same,TGI,[3],3.01 nM and 1.08 µM
same,TGI,[4],8.22 nM and 10.6 µM
same,GI50,[5],2.1 nM and 81.8 nM
same,TGI,[6],6.41 nM and 12.9 µM
same,GI50,[7],4.56 nM and 1.33 µM
